# The whole screen tested about 310,000 compounds, of which about 14,000 (4.5%) showed an effect of 50% or more. Effects have a minus sign here. This is one part of the list.
# Molecular target: human ether-à-go-go-related gene (hERG) potassium channel (human, UniProt Q12809)
# Assay: primary screen, population patch clamp on CHO cells stably expressing hERG
# 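Further: peak tail current of the secondary pulse compared with the same well before compound.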
# human ether-à-go-go-related gene (hERG) potassium channel, sequence (Q12809 whole entry, looked up): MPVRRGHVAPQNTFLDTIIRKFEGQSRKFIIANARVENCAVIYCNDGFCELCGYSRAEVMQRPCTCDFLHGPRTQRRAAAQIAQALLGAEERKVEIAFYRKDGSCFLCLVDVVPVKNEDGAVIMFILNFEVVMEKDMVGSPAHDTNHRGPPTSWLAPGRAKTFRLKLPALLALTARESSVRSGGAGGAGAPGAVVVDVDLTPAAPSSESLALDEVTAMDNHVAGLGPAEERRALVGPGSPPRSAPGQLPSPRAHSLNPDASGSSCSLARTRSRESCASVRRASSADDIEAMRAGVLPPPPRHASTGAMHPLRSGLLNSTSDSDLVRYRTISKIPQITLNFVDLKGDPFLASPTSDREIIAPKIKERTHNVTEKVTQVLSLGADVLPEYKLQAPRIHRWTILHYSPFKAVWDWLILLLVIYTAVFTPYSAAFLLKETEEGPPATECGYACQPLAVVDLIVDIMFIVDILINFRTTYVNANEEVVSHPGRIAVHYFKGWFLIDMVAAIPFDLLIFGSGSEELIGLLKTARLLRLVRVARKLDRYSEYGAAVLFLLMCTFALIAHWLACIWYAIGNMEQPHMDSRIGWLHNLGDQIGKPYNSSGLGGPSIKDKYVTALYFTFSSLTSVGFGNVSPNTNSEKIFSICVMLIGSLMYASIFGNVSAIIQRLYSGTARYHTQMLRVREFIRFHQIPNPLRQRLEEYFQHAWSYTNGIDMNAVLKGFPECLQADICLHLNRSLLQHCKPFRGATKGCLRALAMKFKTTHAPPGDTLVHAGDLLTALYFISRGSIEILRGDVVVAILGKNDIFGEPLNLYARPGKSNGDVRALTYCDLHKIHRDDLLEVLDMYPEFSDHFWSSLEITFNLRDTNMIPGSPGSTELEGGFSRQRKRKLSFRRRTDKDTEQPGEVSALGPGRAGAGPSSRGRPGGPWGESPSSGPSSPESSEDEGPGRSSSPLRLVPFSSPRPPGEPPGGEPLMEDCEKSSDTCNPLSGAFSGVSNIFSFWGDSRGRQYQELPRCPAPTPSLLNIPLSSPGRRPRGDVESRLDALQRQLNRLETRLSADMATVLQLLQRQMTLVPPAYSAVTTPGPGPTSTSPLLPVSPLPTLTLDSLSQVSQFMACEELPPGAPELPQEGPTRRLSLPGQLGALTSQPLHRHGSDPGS
row,Compound,"hERG current change (%, negative = inhibition) at 10uM [%]"
1,Cc1cc(C)n2cc(CSCc3ccco3)nc2n1,-13.9
2,COc1ccc(NC(=O)c2cc(-c3ccco3)on2)cc1OC,13.9
3,O=C(Nc1ccc(-c2nc3ccccc3o2)c(O)c1)c1cc(-n2cnnc2)ccc1Cl,1.02
4,Cc1cc(C)n(Cc2ccccc2Cl)n1,0.411
5,O=C(CNC(=O)c1ccccc1F)OCCCOC(=O)CNC(=O)c1ccccc1F,1.56
6,Cc1cc(Cl)nc2ccc(Cc3ccc4nc(Cl)cc(C)c4c3)cc12,18.4
7,Cc1ccc(CSCC(=O)N(C)CC(=O)Nc2ccccc2Cl)cc1,15.4
8,Cc1cccc2cc(CN(CC3CCCO3)C(=S)NCc3ccco3)c(=O)[nH]c12 (stereo not drawn),9.55
9,O=C(C1CCC1)N1CCN(S(=O)(=O)c2ccc(F)cc2)CC1,11.4
10,CCCCCC1CCC(C(=O)O)CC1 (stereo not drawn),5.24
11,COc1ccc(N=Cc2sc(O)c3ccccc23)cc1,13.7
12,O=C1Cc2cc(NS(=O)(=O)c3ccc(Cl)cc3)cc3c2N1CCC3,-24.6
13,CCC(=O)Nc1nc2ccccc2n1Cc1ccccc1,-6.62
14,CNC(=O)N(O)C1N(NC(=O)Nc2cccc3ccccc23)C(=S)SC1(C)C (stereo not drawn),3.9
15,COc1ccc(OC)c(NC(=O)c2ccc(-n3cccn3)nc2)c1,-19.6
16,C1COCCNCCOCCOCCOCCN1,0.269
17,COc1ccc(C(CNC(=O)c2cc(S(=O)(=O)N3CCCC3)ccc2Cl)N2CCCC2)cc1 (stereo not drawn),-31.6
18,Cc1ccc(S(=O)(=O)Nc2cccc(Cl)c2)cc1NC(=O)c1cccnc1,-12.6
19,S=C1NCCOCCOCCOCCNC(=S)NCCOCCOCCOCCN1,19

row,Compound,"hERG current change (%, negative = inhibition) at 10uM [%]"
1,Cc1cccc(C(=O)N(CCc2ccccc2)Cc2ccccc2)c1[N+](=O)[O-],4.17
2,CC(C)Cn1cnc2c1c(=O)n(CC(O)c1ccccc1)c(=O)n2CC(C)C (stereo not drawn),-5.63
3,Cc1cccc(N2C(=O)NC(=O)/C(=C/c3ccc(N4CCOCC4)cc3)C2=O)c1,19.3
4,COc1ccccc1C(=O)NCCC(=O)N(C)Cc1cccnc1,1.24
5,O=C(O)CSCC(=O)NCc1csc2ccc(Cl)cc12,15.5
6,C=CCc1cccc(CNc2c(C)cc(C)cc2C)c1O,20.6
7,O=C(Nc1ccc(Cl)c(C(F)(F)F)c1)c1ccco1,-18.2
8,CNC1=C(N(C(C)=O)c2ccc(Br)cc2)C(=O)c2ccccc2C1=O,11.5
9,COc1ccc(OC)c(NC(=O)C2CC(=O)N(c3ccc(Br)cc3)C2)c1 (stereo not drawn),-33.6
10,O=C(C(Cc1ccccc1)n1cccc1)N1CCN(C2CCCCC2)CC1 (stereo not drawn),-56.6
11,COc1ccccc1C(=O)NCCC(=O)N1CCN(C(C)=O)CC1,21.3
12,COC(=O)C1=C(C)NC(C)=C(C(=O)OC)C1/C=C/c1ccccc1,-3.12
13,CCn1ccc(C(=O)NC2=NCCS2)n1,-3.73
14,CC(C)Cc1nc2oc3c(NCc4cccnc4)ncnc3c2c2c1CCC2,-50.8
15,O=C(NCc1ccccc1Cl)C1CCC(=O)N(C2CC2)C1 (stereo not drawn),20.4
16,CCCCc1cc(=O)oc2c(CN3CCCC3)c(O)ccc12,-47.6
17,CN(C(=O)c1cccs1)C1(C)CCS(=O)(=O)C1 (stereo not drawn),35.4
18,O=c1[nH]c(CSc2ncc(C(F)(F)F)cc2Cl)nc2cc(C(F)(F)F)ccc12,5.42
19,CCOc1ccc(/C(C)=N\NC(=O)Cc2ccccc2)cc1,-1.3

row,Compound,"hERG current change (%, negative = inhibition) at 10uM [%]"
1,Cc1cc(=O)oc(C)c1C(=O)OCC(=O)c1ccc2ccccc2c1,-2.33
2,CCCCC(=O)Nc1ccc2c(c1)nc(CN1CCN(C(=O)OCC)CC1)n2C,4.4
3,COc1ccccc1N1CCN(C(=O)c2ccccc2NC(=O)C2CCCCC2C(=O)O)CC1 (stereo not drawn),15.6
4,COc1ccc(C)cc1N(C(=O)CNC(=O)c1ccco1)C(C(=O)NCC1CCCO1)c1ccccc1 (stereo not drawn),4.37
5,O=C(C1CCCO1)N1CCN(C(=S)Nc2ccccc2Cl)CC1 (stereo not drawn),2.65
6,CCCc1cc(=O)[nH]c2nnc(SCC(=O)Nc3ccc(NC(C)=O)cc3)n12,8.01
7,NC(=O)C1CCN(S(=O)(=O)c2ccccc2[N+](=O)[O-])CC1,16.1
8,CCc1ccc(OCC(O)Cn2c(N3CCCCC3)nc3c2c(=O)[nH]c(=O)n3C)cc1 (stereo not drawn),-23.4
9,CCCCNC(=O)COC(=O)c1cc(C)nc2ccccc12,-2.15
10,COc1ccc(C2CC(c3ccc4ccccc4c3)=NN2C(=O)CSc2ncccn2)cc1 (stereo not drawn),8.85
11,CCCCCNC(=O)c1ccc2c(=O)n(CC3CCCO3)c(=O)[nH]c2c1 (stereo not drawn),8.23
12,CCOC(=O)N1CCC(N2C(=O)c3ccccc3C2Nc2ccc(Cl)cn2)CC1 (stereo not drawn),-22.5
13,CC(=O)NCCn1c(SCC(=O)NCCC2=CCCCC2)nc2ccccc2c1=O,-18.8
14,CC(C)c1nc2c(c(=O)c3ccccc3n2C)c(=O)n1-c1ccc(F)cc1,-16.5
15,COc1ccc(C([O-])=Nc2ccc[n+](-c3nc4ccccc4nc3NS(=O)(=O)c3ccccc3)c2)cc1,-7.78
16,COc1ccc(CCn2c(C)cc(C(=O)CSc3nnc(N)s3)c2C)cc1,6.03
17,O=C(CCc1ccccc1)Nc1ccnn1C1CCN(Cc2ccc(OCCO)cc2)CC1,-65.3
18,Cc1ccc(C)c(NC(=S)N(C)CCc2ccccn2)c1,9.73
19,O=C(Nc1ccc2ccccc2c1)/C(=C/c1cccc(Br)c1)NC(=O)c1ccco1,-68.6

# — paper PMC4336329 (PLoS ONE, 2015)
